# PubChem BioAssay AID894 (National Center for Advancing Translational Sciences (NCATS), 2007)
# Among all 150,000 compounds or so, about 6,500 (4.3%) were called active. The inconclusive results got no clear call from the source; some entries with a clear call stand among them for comparison. The call rests on the fitted dose curve; in most records, active means well fitted inhibition curve with a large enough effect (not every such curve was filed as active); inconclusive means small, poorly fitted or top-dose-only effect, or another doubt; inactive means no such curve, though single readings can be large or run the other way. Potencies of inconclusive entries are left out as doubtful fits.
# Molecular target: 15-hydroxyprostaglandin dehydrogenase [NAD(+)] (Homo sapiens) (UniProt P15428)
# Sequence of UniProt P15428 (P15428 whole entry, looked up): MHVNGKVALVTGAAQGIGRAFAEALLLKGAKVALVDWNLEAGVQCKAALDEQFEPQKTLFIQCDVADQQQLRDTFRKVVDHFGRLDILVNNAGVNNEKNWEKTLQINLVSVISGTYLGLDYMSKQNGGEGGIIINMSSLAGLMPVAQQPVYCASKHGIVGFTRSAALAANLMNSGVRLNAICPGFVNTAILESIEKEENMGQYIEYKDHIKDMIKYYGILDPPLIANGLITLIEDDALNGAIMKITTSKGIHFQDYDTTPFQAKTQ
# Experiment: qHTS Assay for Inhibitors of HPGD (15-Hydroxyprostaglandin Dehydrogenase)
# Details: purified HPGD, NADH fluorescence kinetic, PGE2 substrate; activity change, negative = inhibition: hits give low values
# Outline: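 20 nM HPGD preincubated 15 min at room temperature with compound in 50 mM Tris-HCl pH 8, 0.01% Tween 20. Started with 1 mM NAD+ and 30 uM prostaglandin E2; NADH fluorescence (360/450 nm) read 5 times over 30-s intervals, last minus first.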
# On the % scale 0 is the no-effect control and ±100 the full control effect; potency means the concentration at half of the fitted maximal effect; tags describe the fitted curve by direction and shape.
SMILES,"activity change, negative = inhibition",Potency
CN(C)C(=O)COC(=O)/C=C/c1ccccc1[N+](=O)[O-],inactive: 2.01%,–
O=C(Cc1coc2ccc3ccccc3c12)Nc1nccs1,–,"inconclusive [inhibitor, partial curve]"
Nc1nc2ccccc2nc1N,–,"inconclusive [inhibitor, partial curve]"
O=C(CSc1nnc(-c2cnccn2)n1Cc1ccco1)c1ccccc1,–,active: 15.8 µM
COc1ccc(-c2c3c([nH]c(=S)c2C#N)CCC3)cc1,–,active: 10 µM
Cc1cccn2c(=O)c(/C=C(\C#N)S(=O)(=O)c3ccccc3)c(N3CCC(C(N)=O)CC3)nc12,–,active: 28.2 µM
COC(=O)c1ccc(CSc2ccc3nnc(-c4ccccc4)n3n2)o1,–,"inconclusive [inhibitor, partial curve]"
Cc1ccc(C(=O)NC2CCCCC2)cc1,–,"inconclusive [inhibitor, partial curve]"
Cc1ccc(-n2c(N)c(C(=O)N3CCN(C)CC3)sc2=S)cc1,–,active: 11.2 µM
C=C(C)C1Cc2cc3ccc(=O)oc3cc2O1 (configuration not stated),–,"inconclusive [inhibitor, partial curve]"
Cc1nc2ccc(S(=O)(=O)NC(C(=O)Nc3nccs3)C(C)C)cc2s1 (configuration not stated),inactive: -1.63%,–
Cc1ccc(-c2csc3nc(CSc4nnc(-c5ccc(Cl)cc5)n4C)[nH]c(=O)c23)cc1,inactive: -6.65%,–
Cn1nnc2cc(C(=O)N3CCCCCC3)ccc21,–,active: 3.16 µM
CN1CCCc2cc(C=O)ccc21,–,"inconclusive [inhibitor, partial curve]"
O=C(/C=C/c1cccc2ccccc12)c1ccncc1,–,"inconclusive [inhibitor, partial curve]"
COc1cccc(-c2nc(CS(=O)CC(=O)NCc3ccccc3Cl)c(C)o2)c1 (configuration not stated),–,"inconclusive [inhibitor, partial curve]"
COc1cccc(NC(=S)N2CCc3cc(OC)c(OC)cc3C2COc2ccc3c(C)cc(=O)oc3c2)c1 (configuration not stated),–,"inconclusive [inhibitor, partial curve]"
COc1ccc(-c2cc(C(=O)NCCN3CCOCC3)c3ccccc3n2)cc1,–,"inconclusive [inhibitor, partial curve]"
CC1=CS/C(=C(/C#N)C(=O)N2CCCCC2)N1c1ccccc1,inactive: -8.83%,–
O=C1CNC(=O)/C1=C/c1ccc(O)cc1,–,"inconclusive [inhibitor, single point]"
O=C(CN1CCC(Cc2ccccc2)CC1)Nc1ccc2c(c1)OCCO2,inactive: -7.88%,–
COc1cccc(C(=O)Nc2cccc(C(=O)NC3=NN(c4c(Cl)cc(Cl)cc4Cl)C(=O)C3)c2)c1,inactive: -24.9%,–
Cc1nn(Cc2ccc(Cl)cc2)c(C)c1NC(=O)Cn1nc([N+](=O)[O-])c(Cl)c1C,inactive: -1.79%,–
c1ccc2c(Cn3nnc4ccccc43)cccc2c1,–,active: 28.2 µM

SMILES,"activity change, negative = inhibition",Potency
CCOC(=O)c1ccc(NC(=O)CC2OCCN(CC)C2=O)cc1 (configuration not stated),inactive: -4.95%,–
Cc1ccc(Cl)cc1N1CCN(C(=O)CSc2ccsc2[N+](=O)[O-])CC1,–,"inconclusive [inhibitor, partial curve, poor fit]"
Cc1ccc(SC(C)C(=O)N2CCCC2)cc1 (configuration not stated),–,"inconclusive [inhibitor, single point]"
COc1cc2oc(=O)cc(-c3ccc(-c4ccc(NC(C)=O)cc4)cc3)c2c(OC)c1OC,–,"inconclusive [inhibitor, partial curve]"
CNc1ccc(/C=C2\COc3ccccc3C2=O)cc1[N+](=O)[O-],–,active: 1.58 µM
c1ccc(Nc2ccc3c4c(cccc24)CC3)cc1,–,"inconclusive [inhibitor, partial curve]"
Cc1cccc2sc(NC(=O)CNS(=O)(=O)c3ccc(Br)s3)nc12,inactive: -12.7%,–
CCCCC(=O)NC(=S)Nc1c(C)cc(Br)cc1C,–,"inconclusive [inhibitor, single point]"
Cc1cccc(CNc2cc(-c3cccnc3)ncn2)c1,–,"inconclusive [inhibitor, partial curve]"
O=C(CN1C(=O)c2cccc3cccc(c23)C1=O)N1CCCCC1,–,"inconclusive [inhibitor, partial curve]"
COc1ccc(-c2nnc3sc(C(C)N4C(=O)c5ccccc5C4=O)nn23)cc1 (configuration not stated),–,active: 7.08 µM
CCOc1ccc2[nH]c(=O)c(CN(CCO)C(=O)c3ccccc3F)cc2c1,–,"inconclusive [inhibitor, partial curve]"
N#CC1=C(S)N(c2ccccc2)C(c2ccc(-c3cccc(Cl)c3)o2)NC1=O (configuration not stated),–,active: 31.6 µM
Cc1ccc(NN2C(=O)C=C(c3ccc(Cl)cc3)C2=O)cc1,inactive: -7.09%,–
Cc1cc(=O)oc2cc(OC(C)C(=O)Nc3nccs3)ccc12 (configuration not stated),–,"inconclusive [inhibitor, partial curve]"
CCOc1ccc2[nH]c(C)c(CN3CCCCC3)c(=O)c2c1,–,"inconclusive [inhibitor, partial curve]"
Cc1cc(C)c2nc(N3CCCN(C(=O)c4ccco4)CC3)c(C#N)cc2c1,–,"inconclusive [inhibitor, partial curve]"
C=CCn1c(=O)c2ccc(C(=O)NCc3ccccc3)cc2n(Cc2cccc(Cl)c2)c1=O,–,"inconclusive [inhibitor, partial curve, poor fit]"
COc1cc2c(C(=O)N3CCN(c4ccccc4C)CC3)c(C)oc2cc1Br,inactive: -5.81%,–
CCn1c(=O)cc(OCC(=O)N2CCCCCC2)c2ccccc21,–,active: 31.6 µM
Cc1nn(C(=O)c2cccs2)c(N)c1-c1ccccc1,inactive: -25.3%,–
Nc1c(S(=O)(=O)c2cccc(Cl)c2)c2nc3ccccc3nc2n1/N=C/c1ccc(O)c(O)c1,inactive: -16.6%,–
Cc1nn(C)c(C)c1CNC(=O)c1nn2c(c1Cl)NC(c1cccs1)CC2C(F)(F)F (configuration not stated),–,"inconclusive [inhibitor, partial curve, poor fit]"
COc1ccc(CC(=O)Nc2nccs2)cc1OC,inactive: -19.7%,–

SMILES,"activity change, negative = inhibition",Potency
N#C/C(=C/c1cccc([N+](=O)[O-])c1)c1nnc2n1CCCCC2,–,active: 20 µM
Clc1ccccc1-c1nc2ccccc2c2nc3ccccc3n12,–,"inconclusive [inhibitor, partial curve]"
COC(=O)c1ccc(N2C(=O)CC(Sc3n[nH]c(C)n3)C2=O)cc1 (configuration not stated),–,active: 15.8 µM
CCn1c(SCc2ccc(Cl)cc2)nc2nc3c(cc2c1=O)CCCC3,inactive: -24.8%,–
CN(C)CCCNc1oc(-c2ccccc2)nc1C#N,–,"inconclusive [inhibitor, partial curve]"
O=C(Nc1ccc2oc(-c3ccccc3Cl)nc2c1)c1ncn[nH]1,–,"inconclusive [inhibitor, partial curve]"
CCC(C)NC(=O)/C(=C/c1ccco1)c1ccccc1 (configuration not stated),–,active: 25.1 µM
CC1CCN(Cc2c(O)ccc3c(=O)c(-c4nc5ccccc5s4)c(N)oc23)CC1,–,"inconclusive [inhibitor, partial curve]"
COc1ccc(-c2nn(C)c3sc(C(=O)NCc4ccco4)cc23)cc1OC,–,"inconclusive [inhibitor, partial curve]"
CCCn1c(-c2ccc(F)cc2)nc2c(NC(C)CCCN(CC)CC)nc(C)nc21 (configuration not stated),–,"inconclusive [inhibitor, partial curve]"
O=C(COc1ccccc1)Nc1cccc(-c2nc3cc4ccccc4cc3[nH]2)c1,–,"inconclusive [inhibitor, partial curve]"
CN(C)c1ccc(-c2noc(C3CCN(S(=O)(=O)c4cccc(Cl)c4)CC3)n2)cc1,–,"inconclusive [inhibitor, single point]"
N/C(CN1CCCC1=O)=N\OC(=O)c1ccccc1Cl,inactive: -14.1%,–
CCOc1ccc(-c2nc(C#N)c(NCC(C)C)o2)cc1,–,"inconclusive [inhibitor, partial curve]"
CCOc1ccc(NC2c3ccccc3C(=O)N2Cc2ccc3c(c2)OCO3)cc1 (configuration not stated),–,active: 28.2 µM
O=C(Cc1cccc2ccccc12)NCCC1=CCCCC1,–,"inconclusive [inhibitor, single point]"
Cc1ccc(/C(N)=N/OC(=O)c2ccc(C)cc2Cl)cc1,–,"inconclusive [inhibitor, partial curve]"
Fc1ccc(-c2nc(-c3cccs3)[nH]c2-c2ccc(F)cc2)cc1,–,"inconclusive [inhibitor, partial curve]"
COc1ccc(NC2=C(Cl)C(=O)N(CCc3ccccc3)C2=O)c(OC)c1,–,active: 15.8 µM
Clc1nc2sccn2c1/C=N/n1cnc2ccccc21,–,"inconclusive [inhibitor, single point]"
Cc1ccc(S(=O)(=O)N(C)c2ccc(OCC(=O)OCc3c(C)noc3C)cc2)cc1,–,"inconclusive [inhibitor, partial curve]"
CCOC(=O)c1ccc(Nc2cc(C)nc(-c3ccccc3O)n2)cc1,–,"inconclusive [inhibitor, partial curve]"
O=C(Nc1ccc2oc(-c3cccnc3)nc2c1)c1ccco1,–,"inconclusive [inhibitor, partial curve]"
CC(=O)O[C@H]1C[C@@]2(C)[C@H](C[C@@H](O)[C@H]3[C@@]4(C)CC[C@@H](O)[C@@H](C)[C@H]4CC[C@@]32C)C1=C(CCC=C(C)C)C(=O)O,inactive: -8.01%,–
